Source: the supplement of paper PMC12217912
This is one part of the list. The full chains were built here from the parent and the listed change. Inactive controls read about 0.05.

B1: TEV protease; numbered along this chain (parent)
chain: MGESLFKGPRDYNPISSSICHLTNESDGHTTSLYGIGFGPFIITNKHLFRRNNGTLVVQSLHGVFKVKDTTTLQQHLVDGRDMIIIRMPKDFPPFPQKLKFREPQREERICLVTTNFQTKSMSSMVSDTSCTFPSGDGIFWKHWIQTKDGQCGSPLVSTRDGFIVGIHSASNFTNTNNYFTSVPKNFMELLTNQEAQQWVSGWRLNADSVLWGGHKVFMVKPEEPFQPVKEATQL

Variants of: B1
Assay: raw area under fraction-flipped curve 0-4 h after induction (AUC4h, not background-subtracted), DNA-recorder readout of cleavage of the substrate (dimensionless); higher = more cleavage of the substrate by the protease variant
Settings: temperature: 34 °C; time window: 0-4 h after rhamnose induction
Experimental: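 In vivo DNA recorder in E. coli TOP10(DE3) ΔrhaA at 34 °C. Each TEVp single-site mutant (parent TEVp 0) is paired with a single-site variant of the 7-mer TEVs (canonical ENLYFQ|S). The substrate sits between flexible linkers in a Bxb1-sfGFP-TEVs-SsrA fusion, so cleavage stabilises Bxb1 and speeds flipping of a recombination array, read by NGS. The value is the raw area under the fraction-flipped curve over 0-4 h after rhamnose induction (AUC4h), with ≥20 reads per time point. It is not background-subtracted; inactive controls average about 0.047.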
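Also: Bxb1 expression induced with 0.2% (w/v) L-rhamnose at OD600 near 0.5, cultures sampled hourly, flipped fraction per protease–substrate barcode pair counted by paired-end Illumina sequencing.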

Variant | area with substrate ENAYFQS | area with substrate ENDYFQS | area with substrate ENEYFQS | area with substrate ENHYFQS | area with substrate ENMYFQS | area with substrate ENQYFQS | area with substrate ENRYFQS | area with substrate ENSYFQS | area with substrate ENTYFQS | area with substrate ENCYFQS
MGESLFKGPRDYNPISSSICHLTNESDGHTTSLYGIGFGPFIITNKHLFRRNNGTLVVQSLHGVFKVKDTTTLQQHLVDYRDMIIIRMPKDFPPFPQKLKFREPQREERICLVTTNFQTKSMSSMVSDTSCTFPSGDGIFWKHWIQTKDGQCGSPLVSTRDGFIVGIHSASNFTNTNNYFTSVPKNFMELLTNQEAQQWVSGWRLNADSVLWGGHKVFMVKPEEPFQPVKEATQL [G80Y] | 0.0606 | 0.0687 | 0.0518 | 0.0467 | 0.0767 | 0.0764 | 0.0386 | 0.0659 | 0.0634 | 
MGESLFKGPRDYNPISSSICHLTNESDGHTTSLYGIGFGPFIITNKHLFRRNNGTLVVQSLHGVFKVKDTTTLQQHLVDGRDMIIIRMPKDPPPFPQKLKFREPQREERICLVTTNFQTKSMSSMVSDTSCTFPSGDGIFWKHWIQTKDGQCGSPLVSTRDGFIVGIHSASNFTNTNNYFTSVPKNFMELLTNQEAQQWVSGWRLNADSVLWGGHKVFMVKPEEPFQPVKEATQL [F92P] | 0.0429 | 0.0656 | 0.0575 | 0.0534 |  | 0.0575 |  | 0.0575 | 0.0593 | 0.0517
MGESLFKGPRDYNPISSSICHLTNESDGHTTSLYGIGFGPFIITNKHLFRRNNGTLVVQSLHGVFKVKDTTTLQQHLVDGRDQIIIRMPKDFPPFPQKLKFREPQREERICLVTTNFQTKSMSSMVSDTSCTFPSGDGIFWKHWIQTKDGQCGSPLVSTRDGFIVGIHSASNFTNTNNYFTSVPKNFMELLTNQEAQQWVSGWRLNADSVLWGGHKVFMVKPEEPFQPVKEATQL [M83Q] | 0.0551 | 0.065 | 0.055 | 0.0614 |  | 0.0597 | 0.0529 | 0.0533 | 0.0659 | 0.0675
MGESLFKGPRDYNPISSSICHLTNESDGHTTSLYGIGFGPFIITNKHLFRRNNGTLVVQSLHGVFKVKDTTTLQQHLVDGRDVIIIRMPKDFPPFPQKLKFREPQREERICLVTTNFQTKSMSSMVSDTSCTFPSGDGIFWKHWIQTKDGQCGSPLVSTRDGFIVGIHSASNFTNTNNYFTSVPKNFMELLTNQEAQQWVSGWRLNADSVLWGGHKVFMVKPEEPFQPVKEATQL [M83V] | 0.0465 |  |  |  | 0.0619 |  | 0.0721 |  | 0.0702 | 
MGESLFKGPRDYNPISSSICHLTNESDGHTTSLYGIGFGPFIITNKHLFRRNNGTLVVQSLHGVFKVKDTTTLQQHLVDGRDMIIIRMPQDFPPFPQKLKFREPQREERICLVTTNFQTKSMSSMVSDTSCTFPSGDGIFWKHWIQTKDGQCGSPLVSTRDGFIVGIHSASNFTNTNNYFTSVPKNFMELLTNQEAQQWVSGWRLNADSVLWGGHKVFMVKPEEPFQPVKEATQL [K90Q] | 0.0597 | 0.0515 |  | 0.0477 |  | 0.0594 | 0.106 | 0.0696 | 0.0715 | 
MGESLFKGPRDYNPISSSICHLTNESDGHTTSLYGIGFGPFIITNKHLFRRNNGTLVVQSLHGVFKVKDTTTLQQHLVDGRDMIIIRMPYDFPPFPQKLKFREPQREERICLVTTNFQTKSMSSMVSDTSCTFPSGDGIFWKHWIQTKDGQCGSPLVSTRDGFIVGIHSASNFTNTNNYFTSVPKNFMELLTNQEAQQWVSGWRLNADSVLWGGHKVFMVKPEEPFQPVKEATQL [K90Y] | 0.0664 | 0.0545 | 0.0498 |  |  |  | 0.0515 |  | 0.0429 | 0.0782
MGESLFKGPRDYNPISSSICHLTNESDGHTTSLYGIGFGPFIITNKHLFRRNNGTLVVQSLHGVFKVKDTTTLQQHLVDGRDMIIIRMPCDFPPFPQKLKFREPQREERICLVTTNFQTKSMSSMVSDTSCTFPSGDGIFWKHWIQTKDGQCGSPLVSTRDGFIVGIHSASNFTNTNNYFTSVPKNFMELLTNQEAQQWVSGWRLNADSVLWGGHKVFMVKPEEPFQPVKEATQL [K90C] | 0.0482 | 0.0661 | 0.0627 |  | 0.0789 | 0.0678 | 0.0337 | 0.0516 | 0.0896 | 0.0665
MGESLFKGPRDYNPISSSICHLTNESDGHTTSLYGIGFGPFIITNKHLFRRNNGTLVVQSLHGVFKVKDTTTLQQHLVDGRDMIIIRMPKDFPPTPQKLKFREPQREERICLVTTNFQTKSMSSMVSDTSCTFPSGDGIFWKHWIQTKDGQCGSPLVSTRDGFIVGIHSASNFTNTNNYFTSVPKNFMELLTNQEAQQWVSGWRLNADSVLWGGHKVFMVKPEEPFQPVKEATQL [F95T] | 0.0394 | 0.0483 |  |  | 0.0675 |  | 0.0616 |  |  | 0.0599

Same assay, conditions: temperature: 34 °C; time window: 0-4 h after rhamnose induction

Variant | area with substrate ENIYFQS | area with substrate ENKYFQS | area with substrate ENPYFQS | area with substrate ENGYFQS | area with substrate ENNYFQS | area with substrate ENVYFQS | area with substrate ENWYFQS | area with substrate ENFYFQS | area with substrate ENYYFQS
MGESLFKGPRDYNPISSSICHLTNESDGHTTSLYGIGFGPFIITNKHLFRRNNGTLVVQSLHGVFKVKDTTTLQQHLVDGRDMIIIRMPKDPPPFPQKLKFREPQREERICLVTTNFQTKSMSSMVSDTSCTFPSGDGIFWKHWIQTKDGQCGSPLVSTRDGFIVGIHSASNFTNTNNYFTSVPKNFMELLTNQEAQQWVSGWRLNADSVLWGGHKVFMVKPEEPFQPVKEATQL [F92P] | 0.068 | 0.0522 | 0.0613 |  |  |  |  |  | 
MGESLFKGPRDYNPISSSICHLTNESDGHTTSLYGIGFGPFIITNKHLFRRNNGTLVVQSLHGVFKVKDTTTLQQHLVDGRDQIIIRMPKDFPPFPQKLKFREPQREERICLVTTNFQTKSMSSMVSDTSCTFPSGDGIFWKHWIQTKDGQCGSPLVSTRDGFIVGIHSASNFTNTNNYFTSVPKNFMELLTNQEAQQWVSGWRLNADSVLWGGHKVFMVKPEEPFQPVKEATQL [M83Q] |  |  | 0.0575 | 0.0586 | 0.0441 | 0.0611 |  |  | 
MGESLFKGPRDYNPISSSICHLTNESDGHTTSLYGIGFGPFIITNKHLFRRNNGTLVVQSLHGVFKVKDTTTLQQHLVDGRDVIIIRMPKDFPPFPQKLKFREPQREERICLVTTNFQTKSMSSMVSDTSCTFPSGDGIFWKHWIQTKDGQCGSPLVSTRDGFIVGIHSASNFTNTNNYFTSVPKNFMELLTNQEAQQWVSGWRLNADSVLWGGHKVFMVKPEEPFQPVKEATQL [M83V] | 0.0833 |  | 0.0582 |  | 0.0619 |  | 0.0536 |  | 
MGESLFKGPRDYNPISSSICHLTNESDGHTTSLYGIGFGPFIITNKHLFRRNNGTLVVQSLHGVFKVKDTTTLQQHLVDGRDMIIIRMPQDFPPFPQKLKFREPQREERICLVTTNFQTKSMSSMVSDTSCTFPSGDGIFWKHWIQTKDGQCGSPLVSTRDGFIVGIHSASNFTNTNNYFTSVPKNFMELLTNQEAQQWVSGWRLNADSVLWGGHKVFMVKPEEPFQPVKEATQL [K90Q] | 0.0766 |  | 0.0579 | 0.0569 |  | 0.0988 |  | 0.0662 | 
MGESLFKGPRDYNPISSSICHLTNESDGHTTSLYGIGFGPFIITNKHLFRRNNGTLVVQSLHGVFKVKDTTTLQQHLVDGRDMIIIRMPYDFPPFPQKLKFREPQREERICLVTTNFQTKSMSSMVSDTSCTFPSGDGIFWKHWIQTKDGQCGSPLVSTRDGFIVGIHSASNFTNTNNYFTSVPKNFMELLTNQEAQQWVSGWRLNADSVLWGGHKVFMVKPEEPFQPVKEATQL [K90Y] |  |  |  | 0.0551 | 0.0684 | 0.0793 | 0.0426 |  | 0.0558
MGESLFKGPRDYNPISSSICHLTNESDGHTTSLYGIGFGPFIITNKHLFRRNNGTLVVQSLHGVFKVKDTTTLQQHLVDGRDMIIIRMPCDFPPFPQKLKFREPQREERICLVTTNFQTKSMSSMVSDTSCTFPSGDGIFWKHWIQTKDGQCGSPLVSTRDGFIVGIHSASNFTNTNNYFTSVPKNFMELLTNQEAQQWVSGWRLNADSVLWGGHKVFMVKPEEPFQPVKEATQL [K90C] | 0.0978 | 0.0536 | 0.048 |  | 0.0641 | 0.0855 | 0.0396 | 0.0623 | 0.066
MGESLFKGPRDYNPISSSICHLTNESDGHTTSLYGIGFGPFIITNKHLFRRNNGTLVVQSLHGVFKVKDTTTLQQHLVDGRDMIIIRMPKDFPPTPQKLKFREPQREERICLVTTNFQTKSMSSMVSDTSCTFPSGDGIFWKHWIQTKDGQCGSPLVSTRDGFIVGIHSASNFTNTNNYFTSVPKNFMELLTNQEAQQWVSGWRLNADSVLWGGHKVFMVKPEEPFQPVKEATQL [F95T] |  |  |  |  |  |  |  |  | 0.0609
